Experimental data: PubChem BioAssay AID504466 (National Center for Advancing Translational Sciences (NCATS), 2011)
The whole screen tested about 330,000 compounds, of which about 4,200 (1.3%) were called active. The inconclusive results got no clear call from the source; some entries with a clear call stand among them for comparison. Calls come from the whole dose curve; as a rule, active = well fitted activation curve with a large enough effect; inconclusive = small, poorly fitted or top-dose-only effect; inactive = no such curve, though single readings can be large or run the other way. Potencies beside an inconclusive call are fits to weak or partial responses and may not hold up.

Assay: qHTS screen for small molecules that induce genotoxicity in human embryonic kidney (HEK293T) cells expressing luciferase-tagged ELG1; note: nearly all actives have a fitted effect of over 60% in size
Conditions: HEK293T ELG1-luciferase reporter, luminescence, 16 h; series mostly up to 46 µM
Outline: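 Reporter readout depends on ELG1 protein level, which increases with genetic stress. After 16 hr compound exposure at 37 °C, luciferase activity was quantified using ONE-Glo.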
Potency is the fitted concentration of half-maximal effect; tags give direction and shape of the fitted curve.

Row | SMILES | Potency
1 | CCOc1ccc(C(=O)CCC(=O)Nc2ncccc2O)cc1 | inconclusive: 29.1 µM [activator, partial curve, poor fit]
2 | Cc1ccc2nc(-c3cc(-c4ccccc4)no3)cn2c1 | active: 0.259 µM
3 | Cc1cc(=O)oc2cc(NC(=O)c3cc4ccccc4o3)ccc12 | inconclusive: 0.794 µM [activator, full curve, poor fit]
4 | O=c1c2ccccc2[nH]c(=S)n1Cc1ccc2c(c1)OCO2 | inconclusive: 25.9 µM [activator, partial curve, poor fit]
5 | CNCCCCOc1ccc(C(C)(C)C)cc1Cl | inconclusive: 32.6 µM [activator, partial curve, poor fit]
6 | COc1nc(Nc2ccc(C(C)=O)cc2)nc(OC)n1 | inconclusive: 25.9 µM [activator, single point]
7 | CC(=O)Nc1ccc(NC(=S)NC(=O)/C=C/c2ccc(Cl)cc2)cc1 | inconclusive: 29.1 µM [activator, single point]
8 | Cc1ccc(/C=c2/sc3n(c2=O)CCCN=3)o1 | inconclusive: 18.4 µM [activator, partial curve]
9 | CC(=O)Cn1nnc(-c2ccc(C(F)(F)F)cc2)n1 | inactive
10 | CCOc1c2ccc(C(=O)NCCc3cccs3)cc2nn1CC | inconclusive: 9.2 µM [activator, partial curve, poor fit]
11 | Cn1sc(NC(=O)c2ccccc2)nc1=O | inconclusive: 20.6 µM [activator, partial curve, poor fit]
12 | CCN(CC)c1ccc2cc(-c3nc4ccccc4[nH]3)c(=O)oc2c1 | active: 0.146 µM
13 | CCOc1cc2c(cc1OCC)C(c1ccc(OC)c(OC)c1)N(c1ccc(C(=O)O)cc1)C(=O)C2 (centres undefined) | inactive
14 | Cc1cc(=O)[nH]c2nnc(-c3ccc(Cl)cc3)n12 | inconclusive: 20.6 µM [activator, single point]
15 | O=C(CSCc1ccccc1)Nc1ccc(Cl)cn1 | inconclusive: 16.4 µM [activator, partial curve]
16 | Cc1ccccc1CSc1nnc(-c2ccccn2)n1N | inconclusive: 6.51 µM [activator, single point]
17 | CC(=O)c1ccc2c(c1)Cc1cc(C(C)=O)ccc1-2 | active: 18.4 µM
18 | Cc1cc(-c2nnc(SCC(=O)Nc3ccccc3C(F)(F)F)o2)c(C)n1-c1ccccc1 | inconclusive: 18.4 µM [activator, single point]
19 | Cc1cc(C)cc(NC(=O)N2CCc3ccccc3C2)c1 | inconclusive: 14.6 µM [activator, partial curve]
20 | Cc1ccc2c(c1)[C@@H]1[C@H](CO2)[C@H](c2ccccc2)[C@]2(C)C(=O)N[C@H](C)C(=O)N12 | inactive
21 | COc1ccccc1NC(=O)c1ccc(C)s1 | active: 11.6 µM
22 | CSc1nncn1/N=C/c1ccc2c(c1)OCO2 | inactive
23 | CC(=O)c1ccc(NC(=O)Nc2ccc([N+](=O)[O-])cc2)cc1 | inconclusive: 18.4 µM [activator, partial curve, poor fit]
24 | CCOC(=O)c1nn(-c2ccc(C)cc2)cc1C(=O)c1ccccc1 | active: 2.59 µM
25 | COC(=O)c1ccc(C#Cc2ccccc2)o1 | inactive

Row | SMILES | Potency
26 | CC(C)(C)NC(=O)c1cc2c(ccc3ccccc32)oc1=O | inconclusive: 18.3 µM [activator, partial curve, poor fit]
27 | CC1CCCC(C)N1/N=C/c1ccc(O)c(O)c1 (centres undefined) | inactive
28 | CCC(=O)N1CCN(c2nc3ccc(Br)cc3s2)CC1 | inconclusive: 9.2 µM [activator, partial curve, poor fit]
29 | Cc1ccnc(NC(=O)CCCNC(=O)c2ccc(Cl)cc2)c1 | inconclusive: 8.2 µM [activator, partial curve, poor fit]
30 | Cc1ccc(OCC(=O)Nc2ccc(S(=O)(=O)N3CCOCC3)cc2)c(Br)c1 | inconclusive: 18.3 µM [activator, partial curve, poor fit]
31 | COc1ccc(C2CC(c3ccccc3OC(C)=O)=NN2C(C)=O)cc1 (centres undefined) | inactive
32 | O=C(N/N=C/c1ccco1)c1cc(C2CC2)[nH]n1 | inconclusive: 16.4 µM [activator, partial curve, poor fit]
33 | Cc1ccc(C)c(N(CC(=O)N2CCCC2)S(C)(=O)=O)c1 | inactive
34 | C=CCOc1ccc(C(=O)Nc2ccc3c(c2)n(C)c(=O)n3C)cc1 | inconclusive: 25.9 µM [activator, single point]
35 | Cc1ccccc1OCC1Cc2c(nc(N)c(C#N)c2N)O1 (centres undefined) | inconclusive: 16.4 µM [activator, partial curve, poor fit]
36 | Cc1ccc2nc(-c3cccnc3SCC(=O)N3c4ccccc4CC3C)[nH]c2c1 (centres undefined) | inconclusive: 8.2 µM [activator, partial curve, poor fit]
37 | O=C1c2ccc(Cl)cc2S(=O)(=O)c2cccc(C(=O)N3CCC(Cc4ccccc4)CC3)c21 | inactive
38 | O=C(CCc1nnc2n(Cc3ccccc3)c(=O)c3ccccc3n12)NCCN1CCOCC1 | inactive
39 | CC(=O)Oc1ccccc1-c1nc(/C=C/c2ccccc2)no1 | active: 9.2 µM
40 | CCN(CC)c1ccc(NC(=O)c2ccco2)cc1 | active: 1.84 µM
41 | O=C(O)c1cccc(NC(=S)N/N=C/c2ccccn2)c1 | inconclusive: 0.73 µM [activator, partial curve]
42 | COc1cccc(CNc2ncnc3ccc(-c4c(C)noc4C)cc23)c1 | inconclusive: 16.4 µM [activator, partial curve, poor fit]
43 | O=c1c2cn[nH]c2[nH]c(=S)n1-c1ccccc1F | active: 6.51 µM
44 | O=C(NCCSC1CCCCC1)c1ccccc1 | inconclusive: 29.1 µM [activator, single point]
45 | COc1ccccc1NS(=O)(=O)c1cc(NC(=O)c2cnccn2)ccc1N1CCOCC1 | inactive
46 | Cc1ccc(S(=O)(=O)N2CCOCC2)cc1C(=O)Nc1ccncc1 | inactive
47 | CCCC(C)NC(=O)c1ccc(-c2ccccc2)cc1 (centres undefined) | inconclusive: 10.3 µM [activator, partial curve, poor fit]
48 | c1ccc(CSc2ccc(-c3ccc4c(c3)OCO4)nn2)cc1 | inconclusive: 14.6 µM [activator, partial curve]
49 | O=C(NC1=NCCS1)c1cccc(OC(F)F)c1 | active: 5.8 µM
50 | CC1(C)NC(=O)N(CCCCOc2ccccc2[N+](=O)[O-])C1=O | inactive

Row | SMILES | Potency
51 | O=C(NC1CC1)C1CCCN1C(=O)NC1CCCCC1 (centres undefined) | inconclusive: 0.73 µM [activator, single point]
52 | CCOC(=O)C1=C(C)N(CC(C)C)C(=O)/C1=C\c1ccc(OCC(=O)Nc2ccccc2)cc1 | inactive
53 | Cc1c(-c2nc(N)nc(Nc3ccccc3F)n2)oc2ccccc12 | active: 3.98 µM
54 | O=C(O)c1ccc(NC(=O)c2cn(-c3ccccc3)nc2-c2ccc(Br)cc2)cc1 | inactive
55 | N/C(=N\OC(=O)COc1ccccc1Cl)c1ccccn1 | active: 9.2 µM
56 | Cc1nc(Nc2ccc(S(=O)(=O)N3CCCCC3C)cc2)c2nnn(Cc3ccccc3)c2n1 (centres undefined) | inactive
57 | CNC(=O)Nc1ccccc1C(=O)NCc1ccccc1 | inactive
58 | N#CC(=C1CCCC1)c1nc(-c2ccccc2)cs1 | inconclusive: 0.92 µM [activator, full curve]
59 | O=C(Nc1ccc(Cc2ccncc2)cc1)C1CCC(N2C(=O)C3C4C=CC(C5CC45)C3C2=O)CC1 (centres undefined) | inactive
60 | O=C(O)c1ccc(N/N=C/c2ccc(-c3ccccc3)cc2)cc1 | inconclusive: 1.46 µM [activator, partial curve]
61 | Cc1ccc2nc(-c3ccc(N)cc3)sc2c1 | inconclusive: 0.184 µM [activator, full curve, poor fit]
62 | CCC(=O)Nc1nc2cc(OC)ccc2s1 | inconclusive: 8.2 µM [activator, partial curve, poor fit]
63 | COC(=O)CCCC(=O)N1CCCC(CCC(=O)NCc2ccc(F)c(F)c2)C1 (centres undefined) | inconclusive: 5.8 µM [activator, full curve, poor fit]
64 | Cn1sc(NC(=O)c2ccc(Cl)cc2)nc1=O | inconclusive: 8.2 µM [activator, partial curve]
65 | O=C(NC(Cc1c[nH]c2ccccc12)C(=O)O)/C(=C\c1ccccc1)NC(=O)c1ccccc1 (centres undefined) | inconclusive: 3.98 µM [activator, single point]
66 | Cc1cccc(Nc2nc(-c3ccc(F)cc3)cs2)n1 | inconclusive: 4.61 µM [activator, single point]
67 | CCN1C(=NCCc2cccs2)N[C@@H](c2cccs2)C(C(=O)OC)=C1C | inactive
68 | CCOc1ccc(C(=O)Nc2ccc3c(c2)OCCO3)cc1OC | active: 18.4 µM
69 | CC(C)(C)n1ncc2c(=O)n(CC(=O)NC3CCCCC3)cnc21 | inconclusive: 14.6 µM [activator, partial curve, poor fit]
70 | CCNC(=O)NC(=O)COC(=O)c1ccccc1SCC(=O)NC(=O)NCC | inconclusive: 2.06 µM [activator, partial curve]
71 | CN1C(=O)CC(c2ccco2)Sc2ccccc21 (centres undefined) | inconclusive: 23.1 µM [activator, partial curve, poor fit]
72 | CC1(C)CC2CC(C)(CN2S(=O)(=O)c2ccc(C(=O)Nc3cccc(S(=O)(=O)N4CCOCC4)c3)cc2)C1 (centres undefined) | inconclusive: 6.51 µM [activator, full curve, poor fit]
73 | O=C(Cc1cccc(NC(=O)C2CCCN(C(=O)C3CCCCC3)C2)c1)Nc1cccc(C(=O)N2CCCC2)c1 (centres undefined) | inactive
74 | CNC(=S)Nc1cccc(S(=O)(=O)NC2=NCCC2)c1 | inactive
